# From article PMC4336329 (PLoS ONE, 2015)
# Screen size: about 310,000 compounds; about 2,200 (0.71%) showed an effect of 50% or more. Effects have a minus sign here. Some of the results follow.
# Biological target: human ether-à-go-go-related gene (hERG) potassium channel (human, UniProt Q12809)
# Test: primary screen, population patch clamp on CHO cells stably expressing hERG
# human ether-à-go-go-related gene (hERG) potassium channel, sequence (Q12809 whole entry, looked up): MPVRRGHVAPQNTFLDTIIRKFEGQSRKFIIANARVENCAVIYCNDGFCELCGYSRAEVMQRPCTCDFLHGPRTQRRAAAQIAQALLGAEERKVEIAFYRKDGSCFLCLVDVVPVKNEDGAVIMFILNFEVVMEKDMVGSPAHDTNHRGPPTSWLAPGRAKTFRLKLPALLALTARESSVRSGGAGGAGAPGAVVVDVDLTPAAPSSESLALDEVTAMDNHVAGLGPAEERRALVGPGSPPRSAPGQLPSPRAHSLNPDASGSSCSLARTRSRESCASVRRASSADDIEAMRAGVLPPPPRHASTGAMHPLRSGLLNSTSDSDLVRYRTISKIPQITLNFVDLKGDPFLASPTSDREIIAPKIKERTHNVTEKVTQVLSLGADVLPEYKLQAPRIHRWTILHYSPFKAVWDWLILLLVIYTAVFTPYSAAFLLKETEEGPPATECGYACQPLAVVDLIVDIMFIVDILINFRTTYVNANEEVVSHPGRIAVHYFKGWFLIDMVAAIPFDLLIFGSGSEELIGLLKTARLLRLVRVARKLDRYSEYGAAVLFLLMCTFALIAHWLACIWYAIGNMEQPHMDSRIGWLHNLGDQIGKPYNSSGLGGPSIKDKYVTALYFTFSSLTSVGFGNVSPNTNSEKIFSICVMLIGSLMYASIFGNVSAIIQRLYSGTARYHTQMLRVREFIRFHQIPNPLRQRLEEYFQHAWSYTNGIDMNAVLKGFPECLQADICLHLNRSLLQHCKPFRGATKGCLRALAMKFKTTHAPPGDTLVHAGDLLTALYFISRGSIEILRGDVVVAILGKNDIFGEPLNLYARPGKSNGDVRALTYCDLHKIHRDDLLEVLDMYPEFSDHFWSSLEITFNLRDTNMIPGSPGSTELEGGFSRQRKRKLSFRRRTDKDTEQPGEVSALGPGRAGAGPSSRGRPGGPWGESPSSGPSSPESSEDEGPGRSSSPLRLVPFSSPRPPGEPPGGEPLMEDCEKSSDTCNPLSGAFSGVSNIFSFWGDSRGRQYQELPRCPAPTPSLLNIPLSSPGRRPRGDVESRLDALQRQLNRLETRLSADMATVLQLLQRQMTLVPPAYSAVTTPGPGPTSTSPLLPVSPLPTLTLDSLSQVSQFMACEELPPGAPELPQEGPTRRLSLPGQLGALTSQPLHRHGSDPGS
row,Compound,"hERG current change (%, negative = inhibition) at 1uM"
1,COc1ccc(C2C(C(C)=O)=C(O)C(=O)N2C)c(OC)c1 (stereo not shown),7.38%
2,COc1ccc(-c2nc3c(s2)CCc2onc(-c4ccc(OC)cc4)c2-3)cc1,-2.16%
3,CC(C)CNC(=O)CC(=O)NN=C1CCCC1,13.9%
4,COC(=O)CSc1nnc(CCc2ccccc2)n1C,11.3%
5,N#C/C(=N\Nc1ccc(S(=O)(=O)N2CCOCC2)cc1)C(N)=S,15.9%
6,COc1cc(OC)c(OC)cc1CN1CCN(C(=O)Cc2ccccc2)CC1.O=C(O)C(=O)O,10.3%
7,CC(c1ccco1)N(C(=O)c1ccc(Cl)c([N+](=O)[O-])c1)c1ccccn1 (stereo not shown),7.02%
8,CCOc1cc(N2CCOCC2)c(OCC)cc1NC(=O)CCS(=O)(=O)c1ccc(Cl)cc1,-11.4%
9,Cl.O=C(c1cccc(S(=O)(=O)N2CCCCC2)c1)N1CCN(Cc2ccccc2)CC1,6.64%
10,CCn1c(COc2ccccc2)nc2ccccc21,17%
11,N#CC(C#N)=C1C=CC=CN1/C(=C\c1ccco1)C(=O)c1ccccc1,-4.77%
12,NC(=O)NC(=O)COC(=O)c1ccc(OC(F)(F)F)cc1,-3.74%
13,COc1cc([N+](=O)[O-])ccc1NC(=O)Cn1ccsc1=N.O=C(O)C(=O)O,12.9%
14,COc1ccc(C2CCCN2C(=O)Nc2ccc(Cl)cc2)cc1OC (stereo not shown),0.443%
15,Cc1sc(NC(=O)CSc2nnc(N)s2)c(C#N)c1C,20.1%
16,CC(=O)N1c2ccc(S(=O)(=O)N3CCC(C(=O)N4CCN(c5cccc(C(F)(F)F)c5)CC4)CC3)cc2CC1C (stereo not shown),17.7%
17,CCN(CC)C(=O)c1cc2cc(Br)ccc2oc1=O,5.75%
18,CC1CCN(C(=O)COc2ccc(S(=O)(=O)N3CCCC3)cc2)CC1,15.2%
19,Cc1cc2c(cc1S(=O)(=O)CCC(=O)N(C)C1CCCCC1)OCC(=O)N2,-4.23%
20,CC(C)CC(=O)N1CCN(Cc2ccc3c(c2)OCO3)CC1,3.43%
21,CCOc1ccc(N(CC)C(=O)c2nn(-c3ccc(OC)cc3)c(=O)c3c2c2ccccc2n3C)cc1,12.4%
22,O=C(Oc1ccccc1/C=C\C(=O)c1cc2ccccc2o1)c1cccc(F)c1,4.26%

row,Compound,"hERG current change (%, negative = inhibition) at 1uM"
1,OCC[C@H]1C[C@H](O)[C@@H](O)[C@]2(CCc3ccccc3CO2)O1,9.46%
2,CCCCSc1nc(SCC(=O)NCc2ccco2)c2c3c(sc2n1)COC(C)(CC)C3 (stereo not shown),11.7%
3,Cc1cc(NC(=O)c2ccc(F)cc2)n(CCOC(=O)c2ccc(F)cc2)n1,11.8%
4,CCN(C(=O)CCc1nc(-c2ccc(OC)cc2)no1)c1cc(OC)ccc1OC,4.49%
5,CCCCC(CC)CNCc1cccn1CCN1CCOCC1.O=C(O)C(=O)O (stereo not shown),8.84%
6,CC(=O)Nc1ccc(NC(=O)CS(=O)(=O)c2cn(CC(=O)N3CCCCC3)c3ccccc23)cc1,9.93%
7,CCN1C(=O)[C@H]2[C@@H](c3ccc(-c4ccccc4)cc3)N3CCCC[C@@]3(C(=O)OC)[C@H]2C1=O.O=C(O)C(F)(F)F,11.1%
8,COCCNc1ncnc2nc[nH]c12,10.7%
9,CCCN1CCC(NC(=O)CC2C(=O)NCCN2Cc2cccc(OC)c2)CC1 (stereo not shown),5.96%
10,O=C(COc1ccccc1Cl)Nc1ccc2c(c1)C(=O)NC2=O,2.28%
11,Cc1c(C(=O)NC(C)CCc2ccccc2)cccc1[N+](=O)[O-] (stereo not shown),0.978%
12,CCOc1ccc(N/C=C/C(=O)c2ccc(OC)c(OC)c2)cc1,15.1%
13,COc1ccccc1CN1CCC(n2nccc2NC(=O)CCc2ccccc2)CC1,7.89%
14,CC1CC(NC(=O)Cc2ccc(Br)cc2)CC(C)(C)C1 (stereo not shown),12.7%
15,Cc1ccc(-c2c[n+]3c(n2-c2ccccc2)CCC3)cc1.[Br-],1.57%
16,Cc1sc(NC(=O)Cc2ccc3c(c2)OCO3)nc1-c1ccc2c(c1)CCN2C(=O)c1cccc(F)c1,4.7%
17,COc1ccc(C(=O)NC(C(=O)NCC(=O)Nc2c(C)cccc2C)C(C)C)cc1 (stereo not shown),9.46%
18,CCCCC(=O)NC(=S)Nc1ccc(Cl)c(C(=O)O)c1,13.4%
19,Cn1cnnc1Sc1cc(N2CCN(S(=O)(=O)c3ccc(Cl)c(Cl)c3)CC2)ccc1[N+](=O)[O-],3.88%
20,Cc1cc(=O)oc2ccc(OCc3ccccc3)cc12,6.69%
21,CCOC(=O)C(NC(=O)c1ccccc1)(N1CCCC1=O)C(F)(F)F (stereo not shown),11%
22,O=C(O)c1ccc(CSCc2ccccc2F)o1,3.34%

row,Compound,"hERG current change (%, negative = inhibition) at 1uM"
1,CN(c1ccccc1)S(=O)(=O)c1cc(C(=O)Nc2nc3ccccc3[nH]2)ccc1Cl,10.4%
2,O=C(N/N=C/c1cccs1)c1c[nH]c2ccccc12,12.9%
3,CC(NC(=O)c1ccc(F)cc1F)C1CC2CCC1C2 (stereo not shown),6.95%
4,Cc1[nH]ccc(=O)c1OCc1c(F)cccc1Cl,12.8%
5,COC(=O)c1cc(=O)nc2sc3cc(OC)ccc3n12,8.89%
6,c1ccc2oc(NC3=NCN(CC4CCCO4)CN3)nc2c1 (stereo not shown),7.11%
7,C=CCc1cc(C=O)cc(OC)c1OCc1ccc(C(=O)O)cc1,2.2%
8,O=C(COC(=O)c1ccc([N+](=O)[O-])cc1Cl)NCc1ccco1,10.1%
9,COc1ccc(C(CC(=O)O)NC(=O)COc2ccccc2)cc1OC (stereo not shown),14%
10,O=C(c1ccccc1[N+](=O)[O-])N(CCc1ccccc1)Cc1ccccc1,12.3%
11,Cc1cc(Nc2ccc(Cl)cc2)n(-c2ccccc2)n1,5.52%
12,COc1ccc(CNC(=O)CN(c2ccc(OC)c(Cl)c2)S(=O)(=O)c2ccc(C)cc2)cc1,15.9%
13,Cn1cccc1C(=O)c1cccc([N+](=O)[O-])c1,-13.3%
14,Cc1ncoc1C(=O)NCc1ccccc1Cl,-2.35%
15,Cc1sc2nc(CN3CCOCC3)nc(NS(=O)(=O)c3cc(Cl)ccc3Cl)c2c1C,2.33%
16,CCOC(=O)N1CCN(Cc2nc3cc(NC(=O)CC(C)C)ccc3n2C)CC1,13.4%
17,CC(C)c1ccc(OCC(=O)NC2CCCC2)cc1,-1.14%
18,O=C(CSc1n[nH]c(-c2ccncc2)n1)Nc1ccccc1C(F)(F)F,11.2%
19,CCn1c(COc2ccc(C(C)C)cc2)nnc1SCC(=O)Nc1nccs1,-8.81%
20,Cc1ccc2c(C)c(C(=O)N(Cc3ccccc3)C3CCS(=O)(=O)C3)oc2c1 (stereo not shown),13.5%
21,Cc1ccccc1-c1nc(CN2CCC(C(=O)NCCN3CCOCC3)CC2)c(C)o1,0.693%
22,Cc1cccc(-n2c(CNC(=O)c3ccc(S(=O)(=O)N(C)C)cc3)nnc2SCC(=O)Nc2ccc(F)cc2)c1,-1.8%

row,Compound,"hERG current change (%, negative = inhibition) at 1uM"
1,Cc1ccc(N(C(C)C(=O)N2CCOCC2)S(C)(=O)=O)cc1C (stereo not shown),-6.27%
2,Cc1nnc(SCC(=O)Nc2cc(S(=O)(=O)N3CCCC3)ccc2Cl)n1C1CC1,1.18%
3,CC(C)(C)c1ccc(C(=O)NC2CCN(Cc3ccccc3)CC2)cc1,-4.07%
4,S=C(NCc1ccco1)Nc1ccc(Cl)cn1,-0.704%
5,Cc1ccc2c(c1)-c1c(cnn1CC(=O)Nc1ccccc1N1CCN(C)CC1)CO2,-0.708%
6,Cc1cc(NC(=O)CCC(=O)N(CC(=O)NC2CCCC2)Cc2cccs2)no1,13.1%
7,CCN1C(=O)[C@H]2[C@@H](c3ccc(-c4ccc(OC)cc4)cc3)N[C@@](Cc3ccccc3)(C(=O)OC)[C@H]2C1=O.O=C(O)C(F)(F)F,2.58%
8,COc1cccc(-c2nc(CS(=O)(=O)CC(=O)Nc3c(C)cccc3C)c(C)o2)c1,18.2%
9,O=C(NCCC1=CCCCC1)C1CCN(S(=O)(=O)c2cccc(C(F)(F)F)c2)CC1,14.2%
10,O=C(CSc1ccc2c(c1)OCCO2)NCCc1ccc(Cl)cc1Cl,12.3%
11,O=C(N/C(=C/c1ccc(Br)cc1)C(=O)N1CCOCC1)c1ccco1,9.17%
12,COc1ccccc1OCCOc1ccccc1/C=N/n1cnnc1,12.1%
13,CCC(NS(=O)(=O)c1ccc(C)cc1)C(=O)N1CCC2(O)CCCCC2C1 (stereo not shown),15.3%
14,CCN1CCN(c2nc3sc4c(c3c3ncnn23)CC(C)CC4)CC1 (stereo not shown),4.08%
15,CCOc1ccc(CCNS(=O)(=O)c2cn(C)cn2)cc1OCC,15.5%
16,CC1=C/C(=N\N=C2\NC(=O)C(CC(=O)Nc3ccccc3F)S2)CC(C)(C)C1 (stereo not shown),12.7%
17,Cc1ccccc1N/C(=N/S(=O)(=O)c1ccccc1)c1ccc(F)cc1,5.33%
18,Cc1cc(C)n2nc(C(=O)N(C)c3c(N)n(Cc4ccccc4)c(=O)[nH]c3=O)nc2n1,17.6%
19,NC(=O)/C(=C/c1ccco1)C(N)=S,17.6%
